Among all 150,000 compounds or so, about 540 (0.36%) showed an effect of 50% or more. The list shows a part of the results.
These molecules were tested on Plasmodium falciparum (assay: Primary screen in NF54 nanoGlo assay, in single point, at 2uM, 72h; a lower Z score goes with more inhibition). Conditions: timepoint 72 hour.
Assay type: functional, Erythrocyte

SMILES | % Inhibition | Z score
O=C(Nc1cc(-c2ccccc2)nc(C(Cl)(Cl)Cl)n1)c1ccccc1 | 2% | -0.23
COCCCN1C(=O)CC(CC(=O)NC(c2ccco2)C(F)(F)F)(c2ccccc2C)C1=O (stereo not drawn) | 10% | -1.21
CNc1nc(N)c(C(=O)Nc2cc(C)on2)s1 | -13% | 2.17
CCCC(O)(CCC)CNc1ncc(C(=O)N(C)C)cc1Cl | -13% | 1.17
Cn1cc(C(=O)Nc2ccc3c(c2)nc(C(C)(C)C)n3C)ccc1=O | -2% | 0.23
O=C(O)Cc1ccc(CN2C[C@@H]3CC[C@@H](C3)C2)cc1 | -8% | 1.31
CCS(=O)(=O)N(C1CC1)[C@H]1CCOC2(CCN(C(=O)Cc3cccc(F)c3)CC2)C1 | -3% | 0.45
O=C(c1c[nH]c(C(=O)N2CCCC2)c1)N1CCN(c2cccc(Cl)c2)CC1 | 24% | -2.67
O=C(NCCCF)c1cccc(Br)c1Cl | -20% | 2.74
COC1(c2nc(-c3cccc(NC(=O)C(C)C)c3)no2)CCOCC1 | -11% | 1.08
OC1CCN(CC2(c3ccccc3)CC2)CC1 | -6% | 0.83
COc1ccnc(CN2CCC[C@H](C(=O)c3cc(C)c(OC)c(C)c3)C2)c1OC | 8% | -1.25
CCOC(=O)c1cccc(Nc2onc(-c3cccc(Cl)c3)c2C(=O)OC)c1 | -6% | 1.11
O=C(NCC(O)CNC(=O)C1(c2cccc(F)c2)CCC1)C1(c2cccc(F)c2)CCC1 | -7% | 1.02
Cc1ccc(C)c(NC(=O)NC2CCCCCCC2)c1 | 8% | -1.11
O=C(CCOCC(F)(F)F)NCC=Cc1ccccc1 | 0% | -0.01
CC1(NC(=O)C2(N3CCCCC3)CCCCC2)CCC1 | 1% | -0.08
COCCNC(=O)[C@@H](NC(=O)c1cccc(C)c1)C1CCN(C(=O)c2ccco2)CC1 | 6% | -0.74
O=C1CN(Cc2ccc3c(c2)C2c4ccccc4C3c3ccccc32)CCN1 | 1% | -0.18
O=C(NC1CCOCC1)N1CC[C@H](n2cnc3ccccc32)C1 | -8% | 1.51
CC1CCN(c2cncnc2-n2cc(NC(=O)NC3CCCCC3)cn2)CC1 | -10% | 1.17

SMILES | % Inhibition | Z score
O=C(COc1ccc[nH]c1=O)Nc1ccccc1F | 4% | -0.57
O=C1c2ccccc2CN1C1(CC(=O)n2ccnc2)CCCCC1 | -15% | 1.89
CO[C@H]1CN(C)C[C@@H]1NS(=O)(=O)c1cccc(F)c1 | -15% | 1.96
Cc1nnc(COC(=O)c2csc(Cc3cccc(F)c3)n2)n1C | -5% | 0.59
Cc1ccc(CN2CCC(CC3CC3)(NC(=O)c3ccccc3)CC2)s1 | -4% | 0.72
CN(Cc1ncnn1C)C(=O)NC[C@@H]1COc2ccccc2C1 | -5% | 0.58
O=C(O)C[C@@H]1CN(C(=O)NCc2cccc(F)c2)C[C@@H]1c1c[nH]nn1 | 8% | -1.41
O=S(=O)(Nc1ncn(Cc2c(Cl)cccc2Cl)n1)c1ccc(Cl)cc1 | -3% | 0.51
O=C(O)c1cc(NC(=O)C2CCCCC2)cc(NC(=O)C2CCCCC2)c1 | 1% | -0.14
Cc1nc(-n2[nH]c3c(c2=O)CCCC3)[nH]c(=O)c1CCCN1C(=O)c2ccccc2C1=O | -8% | 1.25
CCc1noc(CS(=O)(=O)CC2(O)CCC(C)CC2)n1 (stereo not drawn) | -6% | 0.75
Cc1nc(C(C)C)sc1C(=O)N1C[C@@H](CN2CCCCCC2)[C@@H](CO)C1 | 2% | -0.35
O=C(NCCO)Nc1cccc(C(F)F)c1Cl | -3% | 0.24
CC[C@H](C)NC(=O)c1cccc(Nc2c(Oc3cccc(C)c3)cnn(-c3ccccc3Cl)c2=O)c1 | -2% | 0.32
O=S(=O)(c1ccc(F)cc1Cl)N1CCn2c1nc1ccccc12 | 0% | 0.01
CC(C)OC[C@@H](O)CN(Cc1ccc2c(c1)OCO2)Cc1cccs1 | -17% | 1.48
CC(C)c1cc(NC(=O)NCCN2C(=O)CCC2=O)no1 | 5% | -0.52
CN1C(=O)c2ccc(NC(=O)C3=NN(c4ccccc4)C(=O)CC3)cc2C1=O | 6% | -0.88
CCOc1ccc(S(=O)(=O)N2CCN(c3nc4ccccc4nc3C(F)(F)F)CC2)cc1 | -5% | 0.98
Cc1ccc(C)c(NC(=O)Cn2c(C)cc(C)c(-c3nc(-c4ccc5c(c4)OCO5)no3)c2=O)c1 | -12% | 1.71
CC(C)[C@@H]1N(C(=O)c2ccnc3c(C(N)=O)cnn23)CC12CCC2 | -4% | 0.45

SMILES | % Inhibition | Z score
Cc1cc(C(=O)Nc2cccc(C(F)(F)F)c2)cc2c1N(C)S(=O)(=O)c1ccccc1-2 | -3% | 0.47
CC(C)Cc1ccc(CN[C@H]2CCC(=O)NC2)cc1 | -1% | 0.14
CC(C)[C@H](CC(=O)O)NC(=O)Cc1ccncc1 | -3% | 0.41
Cc1nc2c(S(=O)(=O)c3ccccc3)cnn2c(C)c1C | 0% | -0.04
Cc1cnc(-c2noc([C@@H]3CC=CCC3)n2)s1 | -10% | 1.41
CCC(=O)N1CCN(Cc2cnn(-c3ccccc3)c2)[C@@H]2CS(=O)(=O)C[C@@H]21 | -13% | 1.67
Cn1nccc1C1(O)CCN(C(=O)c2cccc(C3CC3)c2)CC1 | -7% | 1.01
O=C(O)c1cccc(-c2noc(C3CC3)n2)c1 | 11% | -1.45
COc1ccccc1-c1noc2ncnc(NCCN3CCCCC3)c12 | 2% | -0.21
CCC(=O)Nc1c(C)noc1/C=C\c1ccc(S(=O)(=O)NCc2cccc(OC)c2)cc1 | -21% | 2.89
Cc1cc(CNC(=O)N2CC(C)OCC2C)cc(N2CCCC2)n1 (stereo not drawn) | -7% | 1
O=C(NCc1cc(C2CC2)on1)c1cccc(S(=O)(=O)NC2CCC2)c1 | -1% | 0.15
O=C(NCCCn1ncccc1=O)c1ccc2ccccc2n1 | -21% | 3.96
CN(C(=O)Cc1cnccn1)C1CCCCCCC1 | 6% | -0.98
FC(F)(F)CCC(CCC(F)(F)F)NCc1cc[nH]n1 | -8% | 1.68
COc1ccc(Cl)cc1NC(=O)N1CC[C@H](Oc2ccncn2)C1 | -11% | 1.68
Brc1cnn(-c2nc3cnccc3s2)c1 | -8% | 1.11
Cc1ccc(Cc2ccccc2C(=O)N[C@H]2C[C@H](c3cc(=O)[nH]cn3)C2)cc1 | -28% | 3.59
O=C(NCc1ccncc1)c1nnc(-c2ccccc2)o1 | 11% | -1.76
CCc1ccc(CNS(=O)(=O)[C@H]2CCN(C(=O)OCc3ccccc3)C2)s1 | -28% | 3.25
CC(C)n1cc(S(=O)(=O)N2CCC[C@H]2c2ncccn2)cn1 | -6% | 0.63

SMILES | % Inhibition | Z score
O=C(CC1CCCC1)NC1CCCCCC1 | -2% | 0.29
CC(C(=O)N1CCC(CNC(=O)OC(C)(C)C)(C(F)F)C1)C1CC1 (stereo not drawn) | -6% | 1.19
C=C(C)COc1ccccc1NC(=O)c1ccnnc1 | -4% | 0.54
CCOC(=O)c1nn(CCc2ccccc2)c2c1CN(C(=O)[C@H]1CCOC1)CC2 | -11% | 1.4
CNC(=O)[C@@H]1CCCCN1C(=O)CCCOCc1ccccc1 | -6% | 0.68
CC1NC(=O)C(C)N(S(=O)(=O)c2cnc3ccsc3c2)C1C (stereo not drawn) | -2% | 0.24
CNc1cc(C(=O)N[C@H]2COCC[C@@H]2OC)ccn1 | -2% | 0.24
COc1cc(C(=O)N2CCCCC2)c(N(C)S(C)(=O)=O)cc1OC | 35% | -3.91
Cc1nc2c(s1)[C@@H](NC(=O)Nc1ccnn1C1CC1)CCC2 | -1% | 0.19
CN1CCN(C(=O)[C@@H]2CCc3ccccc3N2)CC1 | 6% | -0.98
C[C@@H](C(=O)N1CCCc2ccccc21)N1CC(n2cccn2)C1 | 2% | -0.34
CN1CC(C(=O)NC(c2ccccc2)c2cccs2)CC1=O (stereo not drawn) | -1% | 0.2
COc1cnc(NC(=O)NCCN2CCO[C@@H](C)C2)s1 | 0% | 0
COCCNC(=O)CCNCc1cc(-c2ccccc2)cs1 | 4% | -0.57
CS(=O)(=O)N[C@H]1CCCN(c2ncc(-c3ccccc3)s2)C1 | 36% | -5.19
COc1cc(OC)nc(Oc2cccc(OC)c2C(=O)NS(=O)(=O)C(C)C)n1 | -5% | 0.7
Cc1ccc(N2C[C@@H](c3noc(-c4ccc(OC(F)(F)F)cc4)n3)CC2=O)cc1 | -20% | 1.86
O=C(Nc1nnn[nH]1)C(O)(c1ccccc1)c1ccccc1 | 8% | -1.65
Cc1[nH]c2ccccc2c1C1CCN(C(=O)CCc2ncc[nH]2)CC1 | -4% | 0.74
O=C(COc1ccc(Cl)cc1Cl)NC1CCC(CC2CCC(NC(=O)COc3ccc(Cl)cc3Cl)CC2)CC1 (stereo not drawn) | 11% | -1.33
OC[C@H]1CN(CCn2ccc3cc(Cl)ccc32)CCC1(F)F | -5% | 0.69
